Reference: publication PMC4336329 (PLoS ONE, 2015)
About 14,000 (4.5%) of roughly 310,000 compounds showed an effect of 50% or more. The effect is printed as a negative number. This is one part of the list.

molecular target: human ether-à-go-go-related gene (hERG) potassium channel (human, UniProt Q12809); experiment: primary screen, population patch clamp on CHO cells stably expressing hERG
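Also: peak tail current of the secondary pulse compared with the same well before compound.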

Sequence of human ether-à-go-go-related gene (hERG) potassium channel (Q12809 whole entry, looked up): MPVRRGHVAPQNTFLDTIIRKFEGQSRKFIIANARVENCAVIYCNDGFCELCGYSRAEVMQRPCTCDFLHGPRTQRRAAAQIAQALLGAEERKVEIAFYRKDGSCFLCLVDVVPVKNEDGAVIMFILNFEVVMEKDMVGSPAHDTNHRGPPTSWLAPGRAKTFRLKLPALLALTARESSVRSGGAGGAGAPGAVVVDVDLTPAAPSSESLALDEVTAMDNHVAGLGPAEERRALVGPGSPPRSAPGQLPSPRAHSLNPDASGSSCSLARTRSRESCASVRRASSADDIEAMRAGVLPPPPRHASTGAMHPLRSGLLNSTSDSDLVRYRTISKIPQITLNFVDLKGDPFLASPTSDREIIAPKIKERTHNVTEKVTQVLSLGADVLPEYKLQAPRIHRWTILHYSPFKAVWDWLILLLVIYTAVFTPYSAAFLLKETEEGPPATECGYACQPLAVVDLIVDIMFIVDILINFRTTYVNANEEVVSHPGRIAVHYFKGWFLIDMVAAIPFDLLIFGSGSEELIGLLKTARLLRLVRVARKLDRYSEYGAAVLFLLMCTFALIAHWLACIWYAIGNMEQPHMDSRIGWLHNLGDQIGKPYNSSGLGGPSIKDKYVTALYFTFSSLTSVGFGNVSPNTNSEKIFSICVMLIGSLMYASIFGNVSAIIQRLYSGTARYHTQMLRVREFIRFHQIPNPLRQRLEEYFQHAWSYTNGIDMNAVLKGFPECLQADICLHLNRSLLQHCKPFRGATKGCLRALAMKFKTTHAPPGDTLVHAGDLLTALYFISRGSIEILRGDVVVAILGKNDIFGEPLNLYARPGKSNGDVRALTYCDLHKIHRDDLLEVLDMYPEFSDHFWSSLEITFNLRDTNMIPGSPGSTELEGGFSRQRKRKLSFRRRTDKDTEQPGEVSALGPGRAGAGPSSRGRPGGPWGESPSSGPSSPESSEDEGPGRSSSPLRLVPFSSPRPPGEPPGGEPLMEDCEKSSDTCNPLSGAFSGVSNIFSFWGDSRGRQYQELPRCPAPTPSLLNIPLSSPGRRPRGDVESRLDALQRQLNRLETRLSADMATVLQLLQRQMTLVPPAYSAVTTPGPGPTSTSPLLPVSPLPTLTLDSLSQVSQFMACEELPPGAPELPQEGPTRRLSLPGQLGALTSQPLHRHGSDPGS

Compared with CC(Cl)C(=O)c1c[nH]c2ccccc12 (stereo not drawn), CC(C)OCCCNC(=O)Nc1cccc2ccccc12 is lower in “hERG current change (%, negative = inhibition) at 10uM” value: 14.1% for the first, -8.38% for the second.

Going from COc1ccc(/C=C/C(=O)NCCc2ccc(S(N)(=O)=O)cc2)cc1 to Cc1ccc(S(=O)(=O)NC(=O)NCc2ccc(Cl)cc2)cc1, the “hERG current change (%, negative = inhibition) at 10uM” value rises from 3.55% to 9.31%.

Going from COC(=O)[C@@H](NC(=O)c1ccc(OC2CCN(Cc3ccccn3)CC2)cc1)C(C)C to COc1cccc(N2CC(C(=O)Nc3nnc(SCc4ccccn4)s3)CC2=O)c1 (stereo not drawn), the “hERG current change (%, negative = inhibition) at 10uM” value rises from 6.56% to 12.8%.

Compared with COc1ccc2c(CC(=O)Nc3ccc(OC)c(NS(=O)(=O)c4ccc(F)cc4)c3)coc2c1, CCc1ccccc1NC(=O)CN(c1ccc(OC)cc1OC)S(=O)(=O)c1ccccc1[N+](=O)[O-] is lower in “hERG current change (%, negative = inhibition) at 10uM” value: 15.9% for the first, 11.1% for the second.

Going from CC(C)CCOc1ccc(NC(=O)C2OC3OC(C)(C)OC3C3OC(C)(C)OC23)cc1 (stereo not drawn) to CCOC(=O)C(=O)Nc1ccc(Oc2ccccc2)cc1, the “hERG current change (%, negative = inhibition) at 10uM” value falls from 20.5% to -28.1%.

Going from CCc1cc2c(=O)c(-c3nc4ccccc4n3C)c(CCCC(=O)O)oc2cc1OC(=O)C(C)(C)C to CCCC(=O)NCc1nc2ccccc2n1CC(=O)c1ccccc1, the “hERG current change (%, negative = inhibition) at 10uM” value falls from 16.6% to -18.1%.

Going from CC(C)(C)n1nc2c(c1NC(=O)c1ccc(S(=O)(=O)N3CCCC3)cc1)CS(=O)C2 (stereo not drawn) to CN1CCN(C(=O)c2ccc(C(C)(C)C)cc2)CC1, the “hERG current change (%, negative = inhibition) at 10uM” value falls from 9.99% to -1.02%.

First: Cc1onc(-c2ccc(Cl)cc2)c1-c1ccnc(SCC(=O)Nc2cc(Cl)cc(Cl)c2)n1
Second: Cc1ccc(Cl)cc1Nc1nc(-c2sc(NC(=O)c3cccc(Cl)c3)nc2C)cs1
The “hERG current change (%, negative = inhibition) at 10uM” value of the first is lower: 0.804% for the first, 21.5% for the second.

First: CC(=O)Nc1sc2c(c1C(c1cccc(Cl)c1)N1CCN(CCO)CC1)CCCC2 (stereo not drawn)
Second: CC(C)Cc1nc2oc3c(N4CCN(CCO)CC4)ncnc3c2c2c1CCCC2
The “hERG current change (%, negative = inhibition) at 10uM” value of the first is lower: -46.8% for the first, -20.7% for the second.

First: COc1ccc(CCn2c(C)cc(C(=O)CSc3nnnn3-c3ccccc3)c2C)cc1OC
Second: COc1ccc(C(=O)NC(=S)NNC(=O)c2c(-c3ccccc3)noc2C)cc1OC
The “hERG current change (%, negative = inhibition) at 10uM” value of the first is lower: -2.54% for the first, 5.92% for the second.

Going from Cc1cc2c(SCC(=O)NC3CCCC3)ncnc2s1 to Cc1sc(NC(=O)CSc2nnnn2C2CCCCC2)c(C#N)c1C, the “hERG current change (%, negative = inhibition) at 10uM” value falls from 1.04% to -1.07%.

First: Cc1ccc(C(=O)N(Cc2nc3ccccc3c(=O)[nH]2)C2CCCC2)cc1
Second: COC(=O)C1Cc2ccccc2CN1S(=O)(=O)c1ccc(C)cc1 (stereo not drawn)
The “hERG current change (%, negative = inhibition) at 10uM” value of the first is lower: 0.599% for the first, 1.57% for the second.

Going from CCc1ccc(Nc2ccc(S(=O)(=O)N3CCOCC3)cc2[N+](=O)[O-])cc1 to Cc1ccc(S(=O)(=O)N(CCCN2CCCC2=O)Cc2cc3c(C)ccc(C)c3[nH]c2=O)cc1, the “hERG current change (%, negative = inhibition) at 10uM” value falls from -13% to -64%.

First: COc1cc(CNCc2cccnc2)ccc1OCc1ccccc1.Cl
Second: COc1ccc(CC(=O)N/N=C(\C)c2cccnc2)cc1OC
The “hERG current change (%, negative = inhibition) at 10uM” value of the first is lower: -21.8% for the first, 10.2% for the second.

Compared with COc1ccc(/C=N\NC(=O)C2CCCC2)cc1Br, COc1cccc(OC)c1C(=O)N1CC(C)OC(C)C1 (stereo not drawn) is higher in “hERG current change (%, negative = inhibition) at 10uM” value: 5.48% for the first, 16.5% for the second.

Compared with COc1cccc(-c2c(-c3cc(OC)cc(OC)c3)n(C)c3ccc(-c4cnc(OC)nc4)cc23)c1, COc1cc(OC)cc(-c2nc3nc(C)c(CCC(=O)NCc4ccco4)c(C)n3n2)c1 is lower in “hERG current change (%, negative = inhibition) at 10uM” value: 20.1% for the first, 1.44% for the second.

Compared with Brc1ccc(-c2nnc3ccc(Nc4ccccc4)nn23)cc1, CC(=O)Nc1cccc(NC(=O)CSc2nnc(Cc3cccn3C)n2-c2ccc(C)cc2)c1 is lower in “hERG current change (%, negative = inhibition) at 10uM” value: 4.22% for the first, -11.9% for the second.

Going from CC(C)c1ccc(Nc2ncccc2C(=O)O)cc1 to CC(C)c1ccc(S(=O)(=O)c2cnc(=S)[nH]c2N)cc1, the “hERG current change (%, negative = inhibition) at 10uM” value rises from 10.3% to 23.3%.

First: CC(=O)NCCCc1nc2ccccc2n1Cc1ccccc1F
Second: CCCN(S(=O)(=O)c1ccccc1F)S(=O)(=O)c1ccccc1Br
The “hERG current change (%, negative = inhibition) at 10uM” value of the first is lower: -8.31% for the first, 5.05% for the second.

Going from CCOC(=O)c1cccc(NC(=O)CC2Oc3ccccc3NC2=O)c1 (stereo not drawn) to C/C(=N\NC(=O)c1c(Cl)cnn1C)c1cccc(NC(=O)COc2ccccc2)c1, the “hERG current change (%, negative = inhibition) at 10uM” value falls from 5.27% to -13.1%.

First: COc1ccc(-c2nnsc2N2C(=O)c3ccccc3C2=O)cc1
Second: COc1ccc(-n2c3c(cc(C(=O)NCC(=O)c4ccccc4)c2=O)C(=O)CC(C)(C)C3)cc1
The “hERG current change (%, negative = inhibition) at 10uM” value of the first is higher: 12.7% for the first, 1.25% for the second.

Compared with c1ccc(C2CC3CC(c4ccco4)N2O3)cc1 (stereo not drawn), CN(c1ccccc1C(=O)NC1CC2CCC1C2)S(=O)(=O)c1ccccc1 (stereo not drawn) is lower in “hERG current change (%, negative = inhibition) at 10uM” value: 10.9% for the first, -13.1% for the second.

Compared with COc1cccc(N2CCN(C(=S)Nc3ccccc3OC)CC2)c1, COc1ccc(NC(=O)CCC2COc3ccccc3O2)c(OC)c1 (stereo not drawn) is lower in “hERG current change (%, negative = inhibition) at 10uM” value: 16.1% for the first, -13.5% for the second.

Compared with CCOC(=O)CSC1=C(C#N)C(c2ccccc2OC)CC(=O)N1 (stereo not drawn), COc1ccccc1N1CCN(CCCCOc2ccc(C)cc2C)CC1.O=C(O)C(=O)O is lower in “hERG current change (%, negative = inhibition) at 10uM” value: -7.41% for the first, -50.3% for the second.

Going from O=c1[nH]nc(-c2ccc(OCc3ccc(Cl)cc3Cl)cc2)o1 to Cc1ccc(NC(=O)c2cccc(OCc3c(C)noc3C)c2)cc1, the “hERG current change (%, negative = inhibition) at 10uM” value falls from 20.1% to -20.5%.

Going from CCCC(=O)Nc1ccc(-c2csc(NNC(C)=O)n2)cc1 to O=C(CCN1C(=O)C2CCCCC2C1=O)Nc1ccc(OC(F)F)cc1 (stereo not drawn), the “hERG current change (%, negative = inhibition) at 10uM” value falls from 1.93% to -18.5%.

Compared with COc1ccccc1NC(=O)C(C)OC(=O)CCNS(=O)(=O)c1cccc(C(F)(F)F)c1 (stereo not drawn), CCN(CC)S(=O)(=O)c1cc(NS(=O)(=O)c2ccc(Cl)c(C(=O)O)c2)ccc1C is higher in “hERG current change (%, negative = inhibition) at 10uM” value: -19.4% for the first, 9.4% for the second.

First: Cc1ccc(-c2cc(-c3ccccc3)cc(-c3ccccc3)[n+]2-c2ccc(C(=O)O)cc2)cc1.[O-][Cl+3]([O-])([O-])[O-]
Second: COc1ccc(CN(C(=O)c2cccs2)c2ccccc2C(=O)O)cc1
The “hERG current change (%, negative = inhibition) at 10uM” value of the first is higher: 4.17% for the first, -7.68% for the second.

Going from Cc1ccc2c(c1)c1c(n2CC(O)Cn2c(C)nc3ccccc32)/C(=N\O)CCC1 (stereo not drawn) to Cc1ccc(C)c(NC(=S)c2nc3ccccc3s2)c1, the “hERG current change (%, negative = inhibition) at 10uM” value falls from 15.4% to 14.8%.

Going from Cn1c(=O)c2[nH]c(N=Nc3ccc(N)cc3N)nc2n(C)c1=O to Cc1ccc(NC(=O)c2ccc3c(c2)C(=O)N(CC2CCCO2)C3=O)cc1C (stereo not drawn), the “hERG current change (%, negative = inhibition) at 10uM” value falls from 28.7% to -18.1%.

Compared with c1ccc(CSc2cc3ccccc3[nH]2)cc1, Cc1ccccc1NC1(C#N)C(=O)Nc2ccccc21 (stereo not drawn) is lower in “hERG current change (%, negative = inhibition) at 10uM” value: 17.9% for the first, -2.3% for the second.

Compared with COc1cc(Nc2cc(C)nc3ncnn23)cc(OC)c1OC, COc1ccc(C2=Nn3c(nnc3-c3ccncc3)SC2)cc1OC is lower in “hERG current change (%, negative = inhibition) at 10uM” value: 11% for the first, -70.8% for the second.

Going from CN1CCN(Cc2cc(=O)n3ccsc3n2)CC1 to CCN1CCc2nc(NC(=O)c3ccccc3)sc2C1, the “hERG current change (%, negative = inhibition) at 10uM” value falls from 5.23% to 4.94%.

First: CCC(=O)c1cn([C@@H](CCC(OC)OC)CC(=O)OC(C)(C)C)cc1CC
Second: COC(=O)C(=CC(=CN(C)C)C=C(C(=O)OC)C(=O)OC)C(=O)OC
The “hERG current change (%, negative = inhibition) at 10uM” value of the first is lower: -0.00062% for the first, 16.2% for the second.

Going from NC(=O)CSc1oc(-c2ccco2)nc1S(=O)(=O)c1ccc(F)cc1 to CCS(=O)(=O)NCC(c1ccco1)N1CCN(c2ccccc2F)CC1 (stereo not drawn), the “hERG current change (%, negative = inhibition) at 10uM” value falls from 8.47% to -1.69%.

Compared with Cc1n[nH]c(C)c1N1C(=O)c2cccc3c(N4CCCCCC4)ccc(c23)C1=O, O=C1C(Cl)=C(NC2CCCCC2)C(=O)N1c1ccc(Cl)cc1 is higher in “hERG current change (%, negative = inhibition) at 10uM” value: -21.5% for the first, -13.1% for the second.

Going from CC(C)(C)c1ccc(C(=O)Nc2ccc(Oc3cccnc3)nc2)cc1 to Cc1cc2ccccn2c1C(=O)c1ccncc1, the “hERG current change (%, negative = inhibition) at 10uM” value rises from -61.2% to -6.15%.

Compared with COc1ccc(/C=C2\CCCC3C2=NN(C(=O)CSc2ncn[nH]2)C3c2ccc(OC)cc2)cc1 (stereo not drawn), O=C1CC(N2CCC(n3c(=O)[nH]c4ccccc43)CC2)C(=O)N1c1ccc(F)cc1 (stereo not drawn) is lower in “hERG current change (%, negative = inhibition) at 10uM” value: -1.73% for the first, -7.5% for the second.

Going from O=C(N/N=C/c1cc2c(c([N+](=O)[O-])c1)OCO2)c1ccncc1 to COC(=O)CSc1nnc(-c2ccc3c(c2)OCO3)n1C, the “hERG current change (%, negative = inhibition) at 10uM” value rises from 19.8% to 23.2%.

Compared with N#Cc1c(-c2cccs2)cc(-c2cccs2)[nH]c1=O, CCCc1nn(-c2ccccc2)c2c1C(c1cccs1)C(C#N)=C(N)O2 (stereo not drawn) is lower in “hERG current change (%, negative = inhibition) at 10uM” value: 12.9% for the first, -7.93% for the second.

Going from N#Cc1c(NC(=O)C2CCCO2)sc2c1CCCCCC2 (stereo not drawn) to N#Cc1c2n(c3c(N)ncnc13)CCCCC2, the “hERG current change (%, negative = inhibition) at 10uM” value rises from 1.31% to 1.81%.

First: O=[N+]([O-])c1ccc2cn[nH]c2c1
Second: C/C(CC(=O)N1CCN(C=O)CC1)=N\NC(=O)c1ccc(Cl)cc1
The “hERG current change (%, negative = inhibition) at 10uM” value of the first is higher: 15.7% for the first, 10.3% for the second.

Compared with COc1cc(OC)c2c(c1)OCC1CON(C)C21 (stereo not drawn), CC1CCN(C(=O)COC(=O)C2CCN(S(=O)(=O)c3ccc(Cl)c(C(F)(F)F)c3)CC2)CC1 is lower in “hERG current change (%, negative = inhibition) at 10uM” value: -5.12% for the first, -47.7% for the second.

With CC(NS(=O)(=O)OCC(Cl)(Cl)Cl)c1ccccc1 (stereo not drawn) the “hERG current change (%, negative = inhibition) at 10uM” value was 9.74%.
